PubChem BioAssay AID504832 (National Center for Advancing Translational Sciences (NCATS), 2011)
Among all 310,000 compounds or so, about 18,000 (5.8%) were called active. Inconclusive means that the source gave no clear call. Such entries were picked first, then a sample of the others. Calls follow the shape of the dose curve; as a rule, active = well fitted inhibition curve with a large enough effect; inconclusive = small, poorly fitted or top-dose-only effect, or another doubt; inactive = no such curve, though single readings can be large or run the other way. Potencies of inconclusive entries are left out as doubtful fits.

Experiment: Primary qHTS for delayed death inhibitors of the malarial parasite plastid, 48 hour incubation
Settings: P. falciparum luciferase growth in erythrocytes; series mostly up to 28.7 µM; activity change, negative = inhibition: at the top concentration
In short: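 Compounds are pin-transferred into medium, infected erythrocytes (2% hematocrit, 0.1% parasitemia final) are added, and plates sit one parasite generation at 37 C in 5% CO2. Detection reagent is then added and luminescence measured.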
% is scaled to controls: 0 for no effect and ±100 for the full control effect; potency is read from the fitted curve at half-maximal effect; tags tell the direction and shape of the fitted curve.

SMILES	Potency	activity change, negative = inhibition
COc1cccc(CN(C)C(=O)c2ccc(S(=O)(=O)N3CCCC3)cc2)c1OC	inconclusive [inhibitor, full curve, poor fit]	–
CCOc1ccc(NC(=O)C2CCC(CNc3c(N4CCCCC4)c(=O)c3=O)CC2)cc1 (centres undefined)	active: 6.57 µM	–
O=C(Nc1ccc(-c2csc(Nc3ccccc3)n2)cc1)c1cccc(C(F)(F)F)c1	inconclusive [inhibitor, single point]	–
Cc1ccc(S(=O)(=O)Nc2cc3c4c(c2)CCN4C(=O)CC3)cc1	–	inactive: -28%
C(#CCN1CCOCC1)COCCOC(c1ccccc1)c1ccccc1	inconclusive [inhibitor, single point]	–
CCOc1ccc(-c2ccc(SCC(=O)N3CCN(c4ccccc4)CC3)nn2)cc1	–	inactive: -9.28%
Cc1ccc(OCCN2C(=O)S/C(=C\c3ccc(C)o3)C2=O)cc1	–	inactive: 2.68%
COc1ccc(CCn2c(C(C)C)nc3oc4ccccc4c(=O)c3c2=O)cc1	active: 8.28 µM	–
C=CCOn1c(=O)c(-c2ccc(OC)cc2)[n+]([O-])c2ccccc21	–	inactive: -7.25%
NC(=O)CCn1c(C(=O)c2cc(Cl)c(N)c(Cl)c2)c2ccccc2[n+]1[O-]	inconclusive [inhibitor, single point]	–
COc1ccccc1N1CCN(C2CCCN(C(=O)c3ccoc3C)C2)CC1 (centres undefined)	inconclusive [inhibitor, full curve, poor fit]	–
Cc1ccc(Cn2c(N3CCCCCC3)nc3c2c(=O)[nH]c(=O)n3C)cc1	active: 4.15 µM	–
Cc1cc(F)ccc1S(=O)(=O)NCC(c1cccnc1)N1CCc2ccccc21 (centres undefined)	inconclusive [inhibitor, partial curve]	–
CC(=O)c1ccc(Nc2cc(C)nc3c(C)cccc23)cc1	inconclusive [inhibitor, single point]	–
Cc1ccc(S(=O)(=O)N2CCC(=O)N(C(CO)Cc3ccccc3)CC2)cc1 (centres undefined)	inconclusive [inhibitor, partial curve, poor fit]	–
O=C(Nc1ccc(S(=O)(=O)NC2=NCCCCC2)cc1)c1ccc2ccccc2n1	inconclusive [inhibitor, partial curve, poor fit]	–
CCn1c2ccccc2c2cc(NC(=O)c3ccccc3-c3ccccc3C(=O)O)ccc21	inconclusive [inhibitor, full curve]	–
CCNc1cc(O)ccc1C	inconclusive [inhibitor, partial curve, poor fit]	–
COc1ccccc1OCC(=O)NNC(=O)CSC(=S)N1CCCC1	inconclusive [inhibitor, partial curve, poor fit]	–
CCn1c(N2CCN(C(=S)NCC(C)C)CC2)nc2ccccc21	inconclusive [inhibitor, partial curve, poor fit]	–
Cc1[nH]c2ccc(C(=O)N3CCN(c4ccccc4Cl)CC3)cc2c1C	–	inactive: -9.42%
COc1ccc(NC(=O)C2CCN(C(=O)C3CC(=O)N(c4ccc(C)cc4)C3)CC2)cc1 (centres undefined)	inconclusive [inhibitor, single point]	–
O=C(c1ccc2c3c(cccc13)CC2)C1CCCN(C(=O)c2cccnc2)C1 (centres undefined)	inconclusive [inhibitor, single point]	–

SMILES	Potency	activity change, negative = inhibition
COC(=O)C1CCN(C(=O)C2CCN(C(=O)[C@H](C)NS(=O)(=O)c3ccc(C)cc3)CC2)CC1	inconclusive [inhibitor, single point]	–
COc1ccc(C(=O)NNC(=O)CN2CCC(n3nnc4cc(C(F)(F)F)ccc43)CC2)cc1	–	inactive: -7.98%
Cc1ccc(NC(=O)COC(=O)CCc2c(C)nc3nc(N)nn3c2C)cc1C	–	inactive: -0.699%
CC(OC(=O)Cn1nnc2ccccc21)C(=O)NC1CCCC1 (centres undefined)	–	inactive: 6.25%
Nc1c(C(=O)NCc2ccco2)sc2nc3c(cc12)C(=O)CCC3	–	inactive: 7.99%
Clc1ccc(OCc2nc(-c3ccccn3)no2)c(Br)c1	–	inactive: 190%
CCN=C(NCC)SC1CC(=O)N(c2ccc(OCC)cc2)C1=O (centres undefined)	inconclusive [inhibitor, full curve, poor fit]	–
O=C(CN1CCC(NC(=O)c2ccccc2F)CC1)NCc1ccc(F)cc1	active: 13.1 µM	–
Cc1ccc(-c2nnc(SCC(=O)OC(C)C)n2N)cc1	–	inactive: -14.8%
CCOC(=O)c1sc(NC(=S)NC(=O)C2CCCC2)cc1C	inconclusive [inhibitor, single point]	–
COc1ccccc1-n1cc2c([N+](=O)[O-])cc([N+](=O)[O-])cc2n1	inconclusive [inhibitor, single point]	–
Cc1cc(/C=C(\C#N)C(=O)NCc2ccccc2)cc(C)c1O	inconclusive [inhibitor, single point]	–
Cn1cc(C(=O)c2ccc(Cl)cc2Cl)cc1C(=O)N/N=C(\N)COc1cccc(C(F)(F)F)c1	inconclusive [inhibitor, single point]	–
CC(=O)Nc1ccc(S(=O)(=O)NCCc2ccccn2)cc1	–	inactive: 13%
CC1CN(S(=O)(=O)c2cccc(C(=O)OCCOc3ccccc3)c2)CC(C)O1 (centres undefined)	inconclusive [inhibitor, single point]	–
Cc1onc(-c2ccccc2)c1C(=O)Nc1nnc(-c2ccncc2)s1	inconclusive [inhibitor, partial curve]	–
C=CCn1c(SCc2ccc(Cl)c(Cl)c2)nnc1C(CO)NC(=O)c1ccc(OC)cc1 (centres undefined)	inconclusive [inhibitor, single point]	–
Cc1cc(C)nc(Nc2ccc(Br)cc2C(=O)O)n1	–	inactive: 15%
COc1ccc(C(C(=O)NC2CCCCC2)N(Cc2ccco2)C(=O)c2snc(C(N)=O)c2N)cc1 (centres undefined)	inconclusive [inhibitor, partial curve]	–
CCn1c(SCC(=O)NC(C)C)nnc1-c1cccs1	–	inactive: 8.29%
CCc1cccc(NC(=O)CCc2nc3sc4c(c3c(=O)[nH]2)CCCC4)c1	inconclusive [inhibitor, single point]	–
CCC(C)(C)C1CCC2(CC1)NC(=O)N(CC(=O)N1CCN(C(=O)c3ccco3)CC1)C2=O (centres undefined)	inconclusive [inhibitor, single point]	–
Nc1c(Cl)ncnc1N1CCCC1	–	inactive: 5.73%

SMILES	Potency	activity change, negative = inhibition
CCCCOc1ccc(N(CC(=O)NC2CCCCC2)C(=O)c2snc(C(N)=O)c2N)cc1	–	inactive: 4.66%
CC(OC(=O)CCCC(=O)Nc1ccc(F)cc1)C(=O)c1ccccc1 (centres undefined)	inconclusive [inhibitor, single point]	–
Cc1ccc(S(=O)(=O)/N=C(\N)Nc2nc(C)c3cc(C)c(C)cc3n2)cc1	inconclusive [inhibitor, single point]	–
CCOc1ccc(NC2=C(OC)C(=O)c3ccccc3C2=O)cc1	active: 1.17 µM	–
Cc1cc(C)n2nc(SCC(=O)N3CCN(c4ccc(F)cc4)CC3)nc2n1	inconclusive [inhibitor, single point]	–
CCOc1ccc(C(=O)Nc2cccc(C(=O)O)c2C)cc1Cl	–	inactive: 138%
CCOc1ccc(NC(=O)c2ccc3snnc3c2)cc1	–	inactive: 58%
COc1ccc(-c2cc(C(F)(F)F)nc(SCC(=O)N(C)Cc3cnn(C)c3C)n2)cc1OC	inconclusive [inhibitor, single point]	–
COc1cc(OC)cc(OC(=O)C2CCN(C(=O)c3ccc(Cl)cc3)CC2)c1	inconclusive [inhibitor, single point]	–
Cn1c(=O)n(C)c2cc([N+](=O)[O-])c(N3CCN(C(=O)c4ccc(Cl)cc4)CC3)cc21	inconclusive [inhibitor, full curve, poor fit]	–
Cc1ccccc1Oc1cc(-n2ncc(Cl)c(Cl)c2=O)ncn1	inconclusive [inhibitor, partial curve, poor fit]	–
CCOc1cc(Br)c(/C=C2/C(=O)N(C)C(=S)N2CC(=O)OC)cc1OC	inconclusive [inhibitor, single point]	–
COc1ccc(OC)c(C2=NOC(C(=O)Nc3cccnc3)C2)c1 (centres undefined)	–	inactive: 6.79%
COc1ccc(CC(=O)NNC(=S)NC(=O)c2cccnc2)cc1	–	inactive: -8.5%
Cc1cccc(C2NC(=O)c3ccccc3O2)c1 (centres undefined)	inconclusive [inhibitor, single point]	–
COCCN(Cc1nc2ccccc2c(=O)[nH]1)C(=O)c1cccc(S(=O)(=O)N2CCCC2)c1	inconclusive [inhibitor, partial curve, poor fit]	–
CN1CCC(=NNC(=O)c2ccc(N(Cc3ccccc3Cl)S(C)(=O)=O)cc2)CC1	inconclusive [inhibitor, single point]	–
CC(C)(C)C(=O)NC1CCN(CC(=O)Nc2ccc3c(c2)OCO3)CC1	–	inactive: -7.94%
Cc1cccc(-n2c(C)c(-c3ccccc3)[nH]c2=S)c1	inconclusive [inhibitor, single point]	–
O=C(NCCCN1CCN(CCCNC(=O)c2cc([N+](=O)[O-])ccc2Cl)CC1)c1cc([N+](=O)[O-])ccc1Cl	active: 4.65 µM	–
COc1cc(OC)c(NC(=O)C2CCCN2C(=O)OCc2ccccc2)cc1Cl (centres undefined)	inconclusive [inhibitor, single point]	–
CCOCc1c(C(=O)Nc2ccc3nc(N4CCOCC4)sc3c2)oc2ccccc12	active: 14.7 µM	–
COc1cccc(NC(=O)CN(C)C(=O)c2cc(S(=O)(=O)N3CCCCC3)ccc2Cl)c1	inconclusive [inhibitor, single point]	–
